Measurements as given in PubChem BioAssay AID488969 (Vanderbilt High Throughput Screening Facility, 2010).
Over roughly 110,000 compounds, “z-score” has its median near -0.1; the highest 2% begin near 2. The list shows a part of the results. Activity calls are given as the source filed them.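 How the source made its calls: active means z-score in the third read window above 3 or below -3; inactive means the rest.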

Biological target: Metabotropic glutamate receptor 8 (Rattus norvegicus) (UniProt P70579)
Sequence of UniProt P70579 (P70579 whole entry, looked up): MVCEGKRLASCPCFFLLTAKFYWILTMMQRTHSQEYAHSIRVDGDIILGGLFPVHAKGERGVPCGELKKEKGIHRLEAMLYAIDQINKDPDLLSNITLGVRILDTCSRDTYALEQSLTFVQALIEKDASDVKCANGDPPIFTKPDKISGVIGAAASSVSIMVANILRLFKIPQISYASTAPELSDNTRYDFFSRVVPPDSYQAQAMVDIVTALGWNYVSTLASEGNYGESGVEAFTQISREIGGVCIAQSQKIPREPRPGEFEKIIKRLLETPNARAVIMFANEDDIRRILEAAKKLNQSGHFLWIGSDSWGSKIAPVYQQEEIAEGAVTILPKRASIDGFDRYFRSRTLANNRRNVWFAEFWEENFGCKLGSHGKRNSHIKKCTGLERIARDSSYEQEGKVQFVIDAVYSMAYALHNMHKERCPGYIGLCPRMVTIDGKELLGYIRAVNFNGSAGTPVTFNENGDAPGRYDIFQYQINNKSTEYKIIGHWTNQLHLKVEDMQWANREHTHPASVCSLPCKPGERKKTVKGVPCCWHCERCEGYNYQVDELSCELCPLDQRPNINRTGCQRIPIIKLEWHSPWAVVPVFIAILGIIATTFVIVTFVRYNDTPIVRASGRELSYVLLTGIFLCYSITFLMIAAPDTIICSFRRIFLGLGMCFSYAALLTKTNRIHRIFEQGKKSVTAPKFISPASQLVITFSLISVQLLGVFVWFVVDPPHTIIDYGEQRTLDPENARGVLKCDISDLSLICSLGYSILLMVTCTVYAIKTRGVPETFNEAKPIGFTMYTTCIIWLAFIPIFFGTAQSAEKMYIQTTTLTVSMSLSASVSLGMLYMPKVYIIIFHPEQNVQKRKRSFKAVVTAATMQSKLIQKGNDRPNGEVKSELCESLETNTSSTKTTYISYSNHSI
Assay: rat mGluR8 modulators via GIRK flux, primary screen, cell-based, thallium flux, HTS (AID 488969)
Settings: HEK293 rat mGluR8, GIRK (G protein-gated inwardly rectifying potassium channel) thallium flux, FluoZin2; at 10 µM; stronger effect = higher value; submaximal glutamate (EC20) added with thallium

Compound	z-score
COc1ccc(CNC(=O)CCSCc2cccc(Cl)c2)cc1	0.0558
CC1=CS(=O)(=O)CC1Sc1ncn[nH]1 (configuration not stated)	-0.0073
CCC(=O)c1cc2c(cc1NC(=O)C(C)C)OCCO2	-0.256
Cc1noc(NS(=O)(=O)c2ccc(NC(=O)CSc3nc4ccccc4[nH]3)cc2)c1C	-0.137
Cc1nn(C(C)C(=O)NCc2ccccc2)c(C)c1[N+](=O)[O-] (configuration not stated)	0.375
CCCn1nc2cc(C(=O)NC3CCc4ccccc43)ccc2c1OCC (configuration not stated)	-0.247
O=C1C(Nc2ccccc2)=C(N2CCCCC2)C(=O)c2ccccc21	-0.417
CC1(C)OC(C)(C)/C(=C/Nc2ccc(O)cc2)C1=O	-1.24
COc1cc2cc(C(c3nnnn3C3CCCC3)N(C)C3CCCCC3)c(=O)[nH]c2cc1OC (configuration not stated)	0.0453
O=C1C=C(N(CCO)CCO)C2(CCCCC2)O1	0.224
CC1CCN(C2(O)C(=O)Nc3ccc([N+](=O)[O-])cc32)CC1 (configuration not stated)	-0.167
Cc1ccc(C(=O)Nc2nnc(-c3ccco3)o2)cc1C	0.973
CC(Nc1nc(N2CCCC2)nc2ccccc12)c1ccccc1 (configuration not stated)	1.84
COc1ccc(S(=O)(=O)NCc2ccc3c(c2)OCO3)cc1C	-0.278
Cc1cc([N+](=O)[O-])ccc1NC(=S)NC(=O)Cc1ccccc1	active: 6.82
CC(=O)n1nc(-c2ccccc2)nc1NCc1ccc(F)cc1	-0.913
O=c1cc(NC2CCCCC2)c2ccccc2o1	-0.207
O=C(CSc1nnc(Cc2ccccc2)n1-c1ccccc1)NNC(=O)Cc1ccccc1	-0.266
CCC(=O)c1cc2c(C)cc(=O)oc2c(C)c1O	0.19
COc1cccc(C(=O)COC(=O)c2ccc(NC(C)=O)cc2)c1	0.201
Cc1cc(NC(=O)c2c([N+](=O)[O-])cnn2C)no1	-0.164
C=CCNC(=S)NCCCCC1NC(=S)N(CC=C)C1=O (configuration not stated)	-0.0297
CCCCNC(=O)Cn1nc([N+](=O)[O-])c([N+](=O)[O-])c1C	-0.27

Compound	z-score
CC(C)NC(=S)NNC(=O)C12CC3CC(CC(C3)C1)C2	-0.0299
O=C(Nc1nncs1)c1cccc(S(=O)(=O)N2CCOCC2)c1	0.353
CCCCNc1nc2c(c(=O)[nH]c(=O)n2C)n1CCOc1ccccc1	0.106
Cc1ccccc1NC(=O)N1CCCC(c2nc(-c3ccc(C(C)C)cc3)no2)C1 (configuration not stated)	-0.239
Cc1ccc(C)c(NC(=O)C2CC3c4ccccc4C2c2ccccc23)c1 (configuration not stated)	0.151
CC(C)[C@H](NC(=O)NCc1cccs1)C(=O)O	0.105
CN(C)C(=O)c1ccc(Oc2ccc(C(=O)N(C)C)cc2)cc1	2.6
O=C(Cc1cn2ccsc2n1)OCc1nc2ccccc2s1	0.0367
Cc1ccc(S(=O)(=O)N(C#N)c2nc(C)cc(C)n2)cc1	-0.212
CCCCOC(=O)Nc1nc(C)c(C(=O)OCC)s1	-0.0329
Cc1cc(C)c2c(N)c(-c3nc4ccccc4[nH]3)sc2n1	-0.418
COc1cccc(-c2noc(C3CCCN(S(=O)(=O)c4cccc(Cl)c4C)C3)n2)c1 (configuration not stated)	0.354
O=C(O)Cn1ccnc1	-0.327
Cc1ccc(-c2csc(-c3c[nH]c4ccccc34)n2)c(C)c1	-0.17
Oc1[nH]c2ccccc2c1N=NC(=S)NCC1CCCO1 (configuration not stated)	active: 3.01
COc1ccc(-c2[nH]ncc2/C=N\NS(=O)(=O)c2ccccc2)cc1OC	-0.2
CCCCN(NC(C)=O)c1nc(Cl)nc(NC(C)C)n1	-0.129
CCOC(=O)c1ccc(NC(=O)C2CC2)cc1	-0.0174
COc1cc(CNCCCN2CCOCC2)cc(Br)c1OCC(=O)N1CCCCC1	-0.0144
Cc1n[nH]c(=O)nc1NCC1CCCO1 (configuration not stated)	-0.169
CC1CC(C)(C)NC(=S)N1CC(=O)N(C)Cc1ccccc1 (configuration not stated)	-0.189
C/C(=N\Nc1ccc([N+](=O)[O-])cc1)c1cccc(N)c1	-0.247
O=C(CCn1c(=O)oc2ccccc21)Nc1ccon1	0.238

Compound	z-score
Cc1nc(NC(=O)C(C)Oc2cccc(Cl)c2)sc1C(=O)N(C)C (configuration not stated)	-0.251
Cc1cc(Cl)c(S(=O)(=O)NCc2cccnc2)cc1OCC(N)=O	0.034
Cc1ccc(CSc2ccc(-c3ccco3)nn2)cc1	0.361
Cc1onc(-c2ccccc2)c1C(=O)Nc1nc(-c2ccccc2)cs1	-0.393
Cc1cccc(-n2cnc(C(=O)NC3CCCCCC3)c2)n1	-0.376
Cc1ccc(C(=O)NCC(=O)OCc2csc(-c3ccccc3)n2)cc1	-0.0892
CCN1C(=O)CC(n2c(C)nc3ccccc32)C1=O (configuration not stated)	0.288
CC(C(=O)NCCN1C(=O)S/C(=C\c2cccs2)C1=O)N1C(=O)c2ccccc2C1=O (configuration not stated)	-0.139
COC(=O)c1nnn(-c2nonc2N)c1CSc1nc2ccccc2s1	0.29
COc1ccc(C=O)cc1COc1c(F)c(F)cc(F)c1F	-0.366
O=C(C1CC(c2ccc(F)cc2)=NO1)N1CCN(Cc2ccccc2)CC1 (configuration not stated)	-0.104
CCCCn1c(SCC(=O)Nc2ccc3c(c2)CCC3)nc2ccccc2c1=O	0.449
CC(C)c1nc(N2CCOCC2)c(C#N)c2c1COC(C)(C)C2	0.752
CCOC(=O)CCSc1nc(C)c2cc(C)c(C)cc2n1	-0.215
COc1ccc(NC(=O)/C(C#N)=C/c2cc(C)n(-c3ccc(N4CCOCC4)c([N+](=O)[O-])c3)c2C)cc1	-0.109
O=C(NCCN1CCCCCC1)c1ccc(CS(=O)(=O)c2ccc(Br)cc2)o1	-0.338
CCC(=O)Nc1nc(OC)cc(OC)n1	0.0522
Cc1ccc(S(=O)(=O)Nc2ccc3c(c2)CCC3)cc1	-0.101
CCCS(=O)(=O)N1CCN(Cc2ccc(OCc3ccccc3)c(OC)c2)CC1	-1.96
O=C(COC(=O)c1ccccc1O)Nc1ccc(OC(F)F)cc1	0.198
O=C(Nc1ccc(O)c(-c2nc3ccccc3s2)c1)C1=COCCO1	active: -4.15
CC1=CC(C)C2C(=O)N(O)C(=O)C2C1 (configuration not stated)	-0.584
O=C(CSc1ncn[nH]1)c1ccc2c(c1)OCO2	0.0524

Compound	z-score
COC(=O)c1ccc2nc(Nc3nc4ccc(F)cc4s3)sc2c1	0.254
O=C(Nc1ccc2oc(-c3cccnc3)nc2c1)c1ccc(Br)o1	-0.17
COc1ccc(NC(=O)c2ccc(OC(F)F)cc2)cc1Cl	-0.559
COc1cc(CNn2nnnc2N)cc(Br)c1OCC(=O)NC(C)(C)C	-0.0782
O=C(CSc1nccc(=O)[nH]1)N1c2ccccc2CCc2ccccc21	0.789
COc1cccc(/C=N/N2C(=O)C3C4c5ccccc5C(c5ccccc54)C3C2=O)c1OC (configuration not stated)	1.07
CCOC(=O)c1c(NC(=O)CC2Sc3ccc(C(F)(F)F)cc3NC2=O)sc(C)c1C (configuration not stated)	-0.162
O=C(/C=C\c1ccco1)Nc1nc(-c2ccc3ccccc3c2)cs1	-0.0451
CC(C)Oc1ccc(CNC(=O)Cn2c(=O)oc3ccccc32)cc1	-0.0192
COc1ccccc1N1CCN(/N=C/c2c(C)nn(-c3ccccc3)c2C)CC1	-0.0643
Cc1ccc(C(=O)CSc2nnc(COc3cc(C)cc(C)c3)o2)cc1	0.0827
COc1cccc(C2C(C#N)=C(N)N(c3ncn[nH]3)C3=C2C(=O)CCC3)c1 (configuration not stated)	-0.241
Cc1nn(Cc2ccc(Cl)cc2)c(C)c1NC(=O)c1noc2c1CCc1ccccc1-2	-0.182
Cc1cccc(C)c1NC(=O)CSc1nnc(C)n1-c1ccccc1	-0.199
CCOC(=O)c1cnc(SCC(=O)Nc2ccc(NC(=O)CC)c(OC)c2)nc1N	-0.185
Cc1cc(C)c(C)c(S(=O)(=O)NCC(=O)N2CCCC2)c1C	-0.391
O=C(CSc1nc2ccccc2o1)N1CCN(C(=O)c2ccco2)CC1	-0.103
CCCCCC(=O)Nc1ccc2oc(-c3cccnc3)nc2c1	-0.137
O=C(O)c1nn2c(c1Br)NC(c1ccccc1)CC2C(F)(F)F (configuration not stated)	0.232
COC(=O)c1c(-c2ccccc2)csc1NC1=NS(=O)(=O)c2ccccc21	-0.125
O=C(c1cccs1)N1CCN(C(=O)N2CCOCC2)CC1	0.265
COc1ccccc1OCCn1cc(/C=C(\C#N)C(=O)NCc2ccco2)c2ccccc21	-0.138
CC(=O)Nc1ccccc1-c1nc2ccc(C(=O)N3CCN(c4cccc(C)c4)C(C)C3)cc2[nH]c1=O (configuration not stated)	-0.161

Compound	z-score
O=C(Cc1ccccc1)Nc1ccc(CN2CCOCC2)cc1	0.203
CCN(CC)C(=O)CSc1nnc(-c2ccc(S(=O)(=O)NCc3ccccc3Cl)cc2)o1	-0.0586
CSC1=NCCN1C(=O)c1ccc(S(=O)(=O)N2CCOCC2)cc1	0.58
O=C1c2oc3ccc(F)cc3c(=O)c2C(c2ccc(F)cc2)N1CCCN1CCOCC1 (configuration not stated)	0.289
CCCc1nnc(SCC(=O)N2CCCCC2C)n1CC1CCCO1 (configuration not stated)	0.0274
CCCNC(=O)C1CCN(S(=O)(=O)c2ccc3nc4c(c(C(=O)O)c3c2)CCCCC4)CC1	0.104
CCN1C(=O)NC2C1N(S(C)(=O)=O)CCN2S(C)(=O)=O (configuration not stated)	0.683
O=C(O)C1Sc2[nH]c(=O)sc2C2c3cc(Cl)ccc3OC(=O)C12 (configuration not stated)	-0.16
O=C(c1cccc(Br)c1)N1CCN(C(=O)N2CCCCC2)CC1	-0.345
CS(=O)(=O)N(CC(=O)NCc1cccnc1)Cc1ccc(Cl)cc1	0.199
CC(C)NC(=O)CN(CCc1ccccc1)S(C)(=O)=O	-0.11
O=C(c1ccccc1)c1ccc2nc(N3CCN(C(=O)c4ccco4)CC3)c3nncn3c2c1	-1.87
Cc1ccc(NC(=O)Nc2cccs2)c(Cl)c1	0.676
Cc1ccc(C2/C(=C(\O)c3ccc4c(c3)OCCO4)C(=O)C(=O)N2CCCN(C)C)o1 (configuration not stated)	-0.258
Cc1ccc(S(=O)(=O)N2c3ccccc3-c3c(ssc3=S)C2(C)C)cc1	0.293
Cc1ccc(-c2n[nH]c(=O)c3ccccc23)cc1N	0.567
Cc1cc(Cl)c(S(=O)(=O)N/N=C/c2ccc3c(c2)OCO3)c(Cl)c1	-0.527
O=C(Cn1cnc2ccccc21)N/N=C/c1ccco1	0.0037
COc1cccc(-c2cc(C(=O)Nc3ccc4c(c3)OCCO4)c3ccccc3n2)c1	-0.22
O=C(c1ccco1)N1c2ccccc2Sc2ccccc21	-1.03
